# Results from the supplement of paper PMC9174493.
# Some of the results follow. Single values of this set are uncertain. Values with irradiation are relative to irradiated vehicle.
# Columns and labels:
# A549-Dual [1] = experiment: NF-kB reporter (SEAP) activity, viability-corrected, relative to vehicle (fold change vs vehicle); higher = more activation of STING-IRF / NF-kB immune response reporter
# A549-Dual [2] = experiment: ISRE reporter (Lucia luciferase) activity, viability-corrected, relative to vehicle (fold change vs vehicle); higher = more activation of STING-IRF / NF-kB immune response reporter
# 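Throughout, for NF-kB reporter (SEAP) activity, viability-corrected, relative to vehicle: viability correction based on the alamar blue assay, with concentrations leaving 10% survival or less dropped.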
Compound,"NF-kB reporter (A549-Dual [1]; 0.1 µM, irradiation: 8 Gy/4 fr)","NF-kB reporter (A549-Dual [1]; 0.1 µM, irradiation: none)","NF-kB reporter (A549-Dual [1]; 0.3 µM, irradiation: 8 Gy/4 fr)","NF-kB reporter (A549-Dual [1]; 0.3 µM, irradiation: none)","NF-kB reporter (A549-Dual [1]; 1 µM, irradiation: 8 Gy/4 fr)","NF-kB reporter (A549-Dual [1]; 1 µM, irradiation: none)","NF-kB reporter (A549-Dual [1]; 3 µM, irradiation: 8 Gy/4 fr)","NF-kB reporter (A549-Dual [1]; 3 µM, irradiation: none)","NF-kB reporter (A549-Dual [1]; 10 µM, irradiation: 8 Gy/4 fr)","NF-kB reporter (A549-Dual [1]; 10 µM, irradiation: none)","ISRE reporter (A549-Dual [2]; 0.1 µM, irradiation: 8 Gy/4 fr)","ISRE reporter (A549-Dual [2]; 0.1 µM, irradiation: none)","ISRE reporter (A549-Dual [2]; 0.3 µM, irradiation: 8 Gy/4 fr)","ISRE reporter (A549-Dual [2]; 0.3 µM, irradiation: none)","ISRE reporter (A549-Dual [2]; 1 µM, irradiation: 8 Gy/4 fr)","ISRE reporter (A549-Dual [2]; 1 µM, irradiation: none)","ISRE reporter (A549-Dual [2]; 3 µM, irradiation: 8 Gy/4 fr)","ISRE reporter (A549-Dual [2]; 3 µM, irradiation: none)","ISRE reporter (A549-Dual [2]; 10 µM, irradiation: 8 Gy/4 fr)","ISRE reporter (A549-Dual [2]; 10 µM, irradiation: none)"
Cl.Nc1ccn(C2OC(CO)C(O)C2(F)F)c(=O)n1 (stereo not given) [Gemcitabine HCl],1.34,1.93,1.17,2.44,1.26,2.56,1.07,2.04,1.27,1.79,0.542,2.22,0.446,2.8,0.523,2.34,0.433,1.57,0.31,1.27
CCC1(O)CC2CN(CCc3c([nH]c4ccccc34)C(C(=O)OC)(c3cc4c(cc3OC)N(C)C3C(O)(C(=O)OC)C(OC(C)=O)C5(CC)C=CCN6CCC43C65)C2)C1.O=S(=O)(O)O (stereo not given) [Vinblastine sulfate],1.06,2.27,0.813,1.97,0.765,1.74,0.761,1.64,0.803,1.56,0.218,1.31,0.0861,0.75,0.0826,0.604,0.0882,0.527,0.0949,0.648
CC1CC2C3CCC4=CC(=O)C=CC4(C)C3(Cl)C(O)CC2(C)C1(OC(=O)c1ccco1)C(=O)CCl (stereo not given) [Mometasone furoate],0.544,0.643,0.653,0.836,0.984,0.669,0.865,0.762,0.439,0.713,0.0592,0.21,0.0395,0.214,0.0361,0.163,0.0427,0.287,0.0436,0.21
CC(=O)OCC(=O)C1(O)CCC2C3CCC4=CC(=O)CCC4(C)C3C(=O)CC21C (stereo not given) [Cortisone acetate],1.11,1.2,0.903,1.6,0.891,1.68,1,1.27,0.92,0.9,0.923,1.14,0.912,1.21,0.905,1.08,0.961,0.846,0.846,0.78
CC1=C(/C=C/C(C)=C/C=C/C(C)=C/C(=O)O)C(C)(C)CCC1 [Tretinoin],1.17,1.37,1.17,1.22,0.86,1.24,0.979,0.955,0.807,0.911,1.04,1.27,1.34,1.31,0.812,1.3,0.902,0.864,0.754,0.774
CC1(C(=O)O)CCC2(C)CCC3(C)C(=CC(=O)C4C5(C)CCC(OC6OC(C(=O)O)C(O)C(O)C6OC6OC(C(=O)O)C(O)C(O)C6O)C(C)(C)C5CCC43C)C2C1 (stereo not given) [Glycyrrhizin (Glycyrrhizic Acid)],0.545,0.502,0.68,0.487,0.528,0.573,0.473,0.576,0.566,0.612,0.682,0.644,0.683,0.628,0.541,0.88,0.617,0.893,0.765,0.529
CCCC(CCC)C(=O)O [Valproic acid],1.2,1.24,1.02,1.37,1.1,1.69,1.3,1.39,1.1,1.16,1.06,1.15,1.03,1.25,1.19,1.23,1.18,0.788,1.11,1.08
COc1ccc2cc(C(C)C(=O)O)ccc2c1 (stereo not given) [Naproxen],0.88,0.499,0.87,0.497,0.851,0.67,0.7,0.803,0.688,0.813,0.849,0.67,0.764,0.572,0.785,0.638,0.808,0.81,0.848,0.678
Cc1ccc(Nc2nccc(N(C)c3ccc4c(C)n(C)nc4c3)n2)cc1S(N)(=O)=O [Pazopanib],1.02,1.08,0.884,1.17,0.84,1.45,0.73,1.27,0.687,1.02,0.929,0.906,0.848,0.811,0.779,0.878,0.553,0.736,0.563,0.846
CCN(CC)CCCC(C)Nc1ccnc2cc(Cl)ccc12.O=P(O)(O)O.O=P(O)(O)O (stereo not given) [Chloroquine Phosphate],1.48,0.999,1.27,1.48,1.02,1.29,1.28,0.922,1.31,1.18,0.939,1.1,0.907,0.986,1.09,0.913,0.907,1.08,1.32,1
"CC1=C(C)C(=O)C(C(CCCCCC(=O)O)c2ccccc2)=C(C)C1=O (stereo not given) [Seratrodast(AA-2414, ABT-001)]",1.35,2.61,1.38,2.11,1.59,1.42,2.23,1.48,2.18,1.27,1.13,2.45,1.23,1.99,1.49,1.19,1.15,1.42,2.22,1.13
CNC(=O)c1c(C)oc2cc(Oc3ncnc4cc(OC)c(OC)cc34)ccc12 [Fruquintinib],1.07,1.3,1.02,1.01,1.13,1.39,1.04,1.25,0.884,1.12,1.13,1.45,1.29,1.02,0.859,1.14,1.09,0.769,0.884,0.835
O.S=c1nc[nH]c2nc[nH]c12 [6-Mercaptopurine (6-MP) Monohydrate],0.903,0.91,0.848,0.884,0.885,1.08,0.844,0.968,0.854,0.833,0.975,0.865,0.837,0.83,0.9,0.824,0.74,0.521,0.784,0.64
CN(C)C/C=C/C(=O)Nc1cc2c(Nc3ccc(F)c(Cl)c3)ncnc2cc1OC1CCOC1 (stereo not given) [Afatinib (BIBW2992)],0.868,1.02,0.891,1.13,0.835,1.05,0.782,0.777,0.764,0.793,0.921,0.746,1.03,0.73,0.846,0.717,0.805,0.672,0.743,0.916
C1N2CN3CN1CN(C2)C3 [Methenamine],1.2,1.13,1.39,1.11,1.33,1.04,1.53,1.15,1.56,1.34,1.07,1.05,0.997,0.803,0.942,0.875,1.02,1.02,1.07,0.776
CC1(C)OC2CC3C4CC(F)C5=CC(=O)C=CC5(C)C4(F)C(O)CC3(C)C2(C(=O)CO)O1 (stereo not given) [Fluocinolone Acetonide],0.414,0.435,0.476,0.471,0.346,0.611,0.294,0.633,0.283,0.738,0.0359,0.178,0.0371,0.162,0.0379,0.253,0.0451,0.222,0.0409,0.234
CN(C)CCC(c1ccc(Br)cc1)c1ccccn1.O=C(O)/C=C\C(=O)O (stereo not given) [Brompheniramine hydrogen maleate],0.943,1.6,0.988,1.61,1.35,1.1,1.27,1.1,1.01,0.902,1.04,1.15,0.916,1.18,0.972,1.16,1.25,1.24,1.1,1.16
Cc1cccn2c(=O)c(-c3nnn[n-]3)cnc12.[K+] [Pemirolast potassium],1.53,0.901,1.14,1.04,0.894,0.975,0.874,0.947,1.18,1.45,1.02,1.2,0.965,0.914,1.08,0.815,1.04,0.959,1.13,0.963
COc1c(O)cc2c(c1O)C1OC(CO)C(O)C(O)C1OC2=O (stereo not given) [Bergenin],1.02,1.7,1.22,1.7,1.57,1.28,1.92,1.37,0.968,0.574,1.04,1.6,1.04,1.52,1.35,1.09,1.21,1.29,1.1,0.967
COc1ccc(-c2cc(=S)ss2)cc1 [Anethole trithione],1.12,1.16,0.918,1.21,0.971,1.58,0.943,1.19,1.09,1.13,1.01,1.37,1.05,1.18,1.12,1.26,1.03,1,1.04,1.24
CC(=O)OC12COC1CC(O)C1(C)C(=O)C(O)C3=C(C)C(OC(=O)C(O)C(NC(=O)OC(C)(C)C)c4ccccc4)CC(O)(C(OC(=O)c4ccccc4)C21)C3(C)C (stereo not given) [Docetaxel],1.04,2.26,1.16,2.46,1.08,2.42,1.18,1.87,1.08,1.78,0.947,6.65,0.875,6.32,0.761,6.07,1.2,6.01,1.31,5.52
CC(=O)OCC1OC(n2ccc(=O)[nH]c2=O)C(OC(C)=O)C1OC(C)=O (stereo not given) [uridine triacetate],1.16,0.864,1.06,0.902,0.785,0.755,0.787,1.04,0.8,0.979,1.04,0.874,0.959,0.78,0.908,0.767,0.857,0.873,0.887,0.749
CC(=O)OCC(CCn1cnc2cnc(N)nc21)COC(C)=O [Famciclovir],1.07,1.03,0.933,0.936,0.908,1.15,0.857,0.942,0.978,0.92,0.98,0.908,0.924,0.877,0.864,0.896,0.881,0.675,1.05,0.939
CCCCCCNC(=O)n1cc(F)c(=O)[nH]c1=O [Carmofur],1.1,1.01,1.36,1.04,1.16,1.07,1.3,0.827,0.976,0.953,0.986,0.932,1.58,1.07,1.12,0.879,1.2,0.736,0.762,1.49
